The results in this text go back to the supplement of paper PMC11417369.

± gives the standard deviation of the averaged measurements. This is one part of the list.

The test has as its system PfAP2-G AP2 domain (GST-tagged). Put plainly: gcPBM binding intensity (ln(normalized median fluorescence intensity)); higher = stronger DNA binding. The method in brief:
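An Agilent 4 × 180k array carrying primer-extended double-stranded 36-bp intergenic genomic probes and negative controls received GST-tagged P. falciparum DNA-binding domains expressed in E. coli, about 25 μg on average, for 1 h. The binding buffer contained 1× PBS, 1% milk, 0.2 mg/ml BSA, 0.5% salmon testes DNA and 0.03% Triton X-100. Binding intensity is the top Masliner-normalised natural-log median intensity across replicate spots of either probe orientation, read after Alexa488 anti-GST antibody staining and a 488 nm scan.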
On to “GTATATAGTATGTAGAGTACTAATTTCCATATGTTC [XGTACX_site7816]”, for which the “gcPBM binding intensity (ln)” value came out at 10.9 ± 0.41. For the sequence “ATTTATATATAGGTGTGTCCACAAATAGTATGTAAA [XGTACX_site2916]”, the “gcPBM binding intensity (ln)” value was 11.5 ± 0.88. With “GATCAAATAGAAAATACATGCAATGTGTGAAATAAC [TGCATGCA_site835]”, the “gcPBM binding intensity (ln)” value is 10.015 ± 0.007.

On to TTTCAAATGGAATGTGTGCACATAAATGTAAATAAA, for which the “gcPBM binding intensity (ln)” value was 10.5 ± 0.25.

With “AAAAAAAAAATTTACTGTACACATTTGGGATACTCA [XGTACX_site5191]”, the “gcPBM binding intensity (ln)” value turned out to be 11.7 ± 0.76.

Take “TTTAAAATAACCAAAAACAAAAAGAAACACAAATGT [GTGCAC_negctrl_site705]”: the “gcPBM binding intensity (ln)” value came to 10.28 ± 0.092. Then “ATGGTTTTCAGAAAAACATGCATACAATAATAAAAA [TGCATGCA_site815]”, with 10.1 ± 0.085.

With “CTTATTTAATGTATCACACACGAGAATAAAAAATAA [CACACA_site3020]”, the “gcPBM binding intensity (ln)” value stood at 10.2 ± 0.21.

As for “TATAAGTTGATATATACACACATATATAAATATGTA [CACACA_site7526]”, the “gcPBM binding intensity (ln)” value came out at 9.89 ± 0.11. The same measure for “TATTTATAAAAATATACACACATACAAATATGCATA [CACACA_site4555]”: 9.815 ± 0.007. The same measure for “GAAATTAAAAAATTTATGCACACTTTAAAAAAAAAA [CACACA_site3769]”: 10.1 ± 0.2; for “ATATATATATATAATTGTACATTTTTATGTTTTATA [XGTACX_site4560]”: 10.8 ± 0.62; for “AAACTTTTTTTAAAAACACACATATAGATTTATATA [CACACA_site7842]”: 9.88 ± 0.014.

Turning to “TATTTTTAAACAAAACTGTATTTATTTTTTAAAATT [CACACA_negctrl_site1449]”, the “gcPBM binding intensity (ln)” value came out at 9.725 ± 0.049. For the sequence TTTTGTTATTTTTGTATGCACTACATATTATTATAT, the “gcPBM binding intensity (ln)” value is 10.4 ± 0.18.

“TAGTTTTTTATATATTGTACAAATGATATATTATAT [XGTACX_site1002]”: the “gcPBM binding intensity (ln)” value was 10.9 ± 0.57. Then “AATGATTTTCAATCGAAATGAAACTTAGAAGATATA [CACACA_negctrl_site1475]”, with 9.755 ± 0.021; and “TTTTAAACAGGACACACACACATATAGATTTATATA [CACACA_site6560]”, with 10.4 ± 0.34; and “ATATGTAGTTTTTATTGTACGTGTAGAAGAAATAAT [XGTACX_site6608]”, with 11.5 ± 1.2.

“TTCATTAAAATTATTACACACAGTTCTTCAACCAAA [CACACA_site3504]”: the “gcPBM binding intensity (ln)” value was determined as 10 ± 0.14.

“AAGGTGGAAACAATTACACACACACTAAAAAAAAAA [CACACA_site7493]”: the “gcPBM binding intensity (ln)” value was 10.3 ± 0.29. On to ATATATATATATTTCGTGCACTGATAATATTATTTT, for which the “gcPBM binding intensity (ln)” value was 10.3 ± 0.49. Then “TATATTTTAATTTGAAGTACTAATATTTATTTATAT [XGTACX_site7458]”, with 11.1 ± 0.74; and “TATAACCATATATACACACACATATAAATATAAATA [CACACA_site7089]”, with 9.91; and “ATGAAAAAAAATAAAAAATATATATATATATATATA [CACACA_negctrl_site236]”, with 9.9 ± 0.73.
